According to ChEMBL document CHEMBL4888484, “Replenishing the malaria drug discovery pipeline: Screening and hit evaluation of the MMV Hit Generation Library 1 (HGL1) against asexual blood stage Plasmodium falciparum ,using a nano luciferase reporter read-out” (2022):
Hit rate of the full screen: of about 150,000 compounds, about 540 (0.36%) showed an effect of 50% or more. The list shows a part of the results.

test system: Plasmodium falciparum; assay: Primary screen in NF54 nanoGlo assay, in single point, at 2uM, 72h; a lower Z score goes with more inhibition; assay type: functional, Erythrocyte; conditions: timepoint 72 hour

Q: What does the source list for `Cc1ccc(-c2nc(-c3cccc(OCc4ccc(F)c(F)c4)c3)no2)cc1`?
A: % Inhibition: -10%; Z score: 1.98

Q: `CCCn1ncc(C(=O)N2CCn3cccc3[C@@H]2CC)c1C` was tested. Which “% Inhibition” value did it give?
A: -3%

Q: And the Z score?
A: 0.42

Q: For `CCc1nc2cc(-c3cccc(C(=O)NC4CCOCC4)c3)ccc2o1`, which “% Inhibition” value is on record?
A: 2%

Q: What about the Z score of the same molecule?
A: -0.33

Q: What does the source list for `CCOC(=O)C1CCN(C(=O)c2ccc(N3C(=O)CCS3(=O)=O)cc2Cl)CC1`?
A: % Inhibition: 0%; Z score: 0.04

Q: `CCC(=O)N1CCc2cc(N3C[C@@H](C(=O)N4CCN(c5ccccn5)CC4)CC3=O)ccc21` was tested. Which “% Inhibition” value did it give?
A: -11%

Q: What about the Z score of the same molecule?
A: 2.22

Q: `Cc1cccc(N2N=C(C(=O)NCc3ccccn3)CCC2=O)c1` was tested. Which “% Inhibition” value did it give?
A: -8%

Q: And the Z score?
A: 0.96

Q: How did the “% Inhibition” value turn out when `O=S(=O)(C1CC1)N1CCCN(C2CCC2)CC1` was run?
A: -17%

Q: And the Z score?
A: 2.95

Q: Which “% Inhibition” value does the source give for `COc1ccc(-c2cnc3ccccc3n2)cc1NC(=O)c1ccc(Cl)cc1` here?
A: -9%

Q: What about the Z score of the same molecule?
A: 1.61

Q: `Cc1ccc(O[C@H]2CCCN(C(=O)CCc3c(C)noc3C)C2)nn1` was tested. Which “% Inhibition” value did it give?
A: -10%

Q: What about the Z score of the same molecule?
A: 1.77

Q: With `O=C(NC[C@]1(O)CCCN(C(=O)c2cc(C3CC3)n[nH]2)CC1)N1CCCC1` as the molecule, how does the “% Inhibition” value read?
A: 5%

Q: What about the Z score of the same molecule?
A: -0.44

Q: For `N#Cc1cc(-c2ccccc2)oc1N(S(=O)(=O)c1ccccc1)S(=O)(=O)c1ccccc1`, which “% Inhibition” value is on record?
A: 1%

Q: And the Z score?
A: -0.13

Q: Which “% Inhibition” value does the source give for `COCCNC(=O)[C@@H](C)[C@@H]1CC[C@@]2(C)CC[C@H](NC(=O)CC(C)(C)C)[C@@H](C)[C@@H]2[C@H]1O` here?
A: 31%

Q: And the Z score?
A: -3.58

Q: Which results are given for `O=C(NCc1cccnc1N1CCOCC1)C1CCN(c2ccc(-n3cncn3)nn2)CC1`?
A: % Inhibition: -7%; Z score: 1.02

Q: For `Cc1nnc(-c2ccc3ccn(CC(=O)N4CCN(c5ncccn5)CC4)c3c2)o1`, which “% Inhibition” value is on record?
A: -5%

Q: And the Z score?
A: 0.59

Q: Which “% Inhibition” value does the source give for `C[C@H](NC(=O)c1cc[nH]c1C1CCC1)c1cncs1` here?
A: 1%

Q: And the Z score?
A: -0.26

Q: What does the source list for `Nc1ccc2nc3n(c(=O)c2c1)CCCC3`?
A: % Inhibition: -11%; Z score: 1.34

Q: For `COc1cccc2[nH]c(C(=O)NCc3ccc4c(c3)CCN4C(=O)c3ccccc3)cc12`, which “% Inhibition” value is on record?
A: -4%

Q: What about the Z score of the same molecule?
A: 0.83

Q: Which “% Inhibition” value does the source give for `CCC(Nc1cccc(COCC2CCCCO2)c1)C(N)=O` (centres undefined) here?
A: -9%

Q: And the Z score?
A: 1.24

Q: What does the source list for `CN1CCN(c2ccccc2NC[C@]2(c3cccc(F)c3)CCOC2)CC1`?
A: % Inhibition: 6%; Z score: -0.75

Q: Which results are given for `O=C1CCC[C@H](CC(=O)N2CCn3c(cnc3C(F)(F)F)C2)N1`?
A: % Inhibition: 5%; Z score: -0.94

Q: Which results are given for `CC(=O)N1CCC(C(=O)Nc2nc3c(ccc4ccccc43)s2)CC1`?
A: % Inhibition: -3%; Z score: 0.28

Q: How did the “% Inhibition” value turn out when `C#CCOc1ccc(CCNCc2cn(C)nc2-c2ccncc2)cc1` was run?
A: -4%

Q: And the Z score?
A: 0.59

Q: With `Cc1cccc(CN2CCC(N3CCC(C(=O)N(C)[C@H]4CCOC4)CC3)CC2)n1` as the molecule, how does the “% Inhibition” value read?
A: -12%

Q: And the Z score?
A: 1.55

Q: What does the source list for `Cc1nc(C(=O)NCc2ccc(Cl)cc2)co1`?
A: % Inhibition: -10%; Z score: 1.76

Q: `CC(C)(C)OC(=O)NC[C@H](NC(=O)Nc1ccc2c(c1)OCCO2)C1CCCCC1` was tested. Which “% Inhibition” value did it give?
A: -2%

Q: What about the Z score of the same molecule?
A: 0.33

Q: Which “% Inhibition” value does the source give for `CCOC(=O)c1sc(NC2=NCCCCC2)nc1C` here?
A: -13%

Q: And the Z score?
A: 1.89

Q: For `Cc1c[nH]c(CN(C)CC2(C)COC2)c(C)c1=O`, which “% Inhibition” value is on record?
A: 8%

Q: And the Z score?
A: -1.6

Q: `C=CCCC(=O)N1C[C@H](c2ccccc2)[C@H](C(=O)O)C1` was tested. Which “% Inhibition” value did it give?
A: -9%

Q: What about the Z score of the same molecule?
A: 1.05

Q: `Cc1cc(C(=O)N2CC3OCCN(Cc4ccccc4)C3C2)[nH]n1` (centres undefined) was tested. Which “% Inhibition” value did it give?
A: -5%

Q: And the Z score?
A: 0.62

Q: With `CCN(C(=O)CCN1CCCO1)C1CCCCCC1` as the molecule, how does the “% Inhibition” value read?
A: -10%

Q: And the Z score?
A: 2.06

Q: `COc1ccc2cc3n(c2c1)C[C@@](C)(C(=O)NC1CCCCCC1)N(CCN1CCCCCC1)C3=O` was tested. Which “% Inhibition” value did it give?
A: 2%

Q: And the Z score?
A: -0.31

Q: Which results are given for `CCOc1nccn2c(CNC(=O)COc3ccccc3C)nnc12`?
A: % Inhibition: 8%; Z score: -0.98

Q: With `Cn1ncc2c(N3CCO[C@H](c4ccccc4)C3)ncnc21` as the molecule, how does the “% Inhibition” value read?
A: -4%

Q: And the Z score?
A: 0.54

Q: Which “% Inhibition” value does the source give for `COc1ccc(CN2C[C@@H](CO)[C@H](NC(=O)c3cccnc3)C2)cc1` here?
A: -14%

Q: What about the Z score of the same molecule?
A: 2.34

Q: With `COc1ncnc(C)c1-c1ccc(C(=O)N[C@@H](CC(C)C)C(N)=O)cc1` as the molecule, how does the “% Inhibition” value read?
A: -3%

Q: What about the Z score of the same molecule?
A: 0.46

Q: What does the source list for `CCN(CC)C(=O)c1cncn1-c1cccc(-c2ccc(OC)c(OC)c2)c1`?
A: % Inhibition: 6%; Z score: -0.58

Q: For `CN(Cc1nnnn1CC(F)(F)F)c1cnn(C)c1`, which “% Inhibition” value is on record?
A: -3%

Q: What about the Z score of the same molecule?
A: 0.66

Q: `N#CC1CN(C(=O)CS(=O)(=O)C2CCCC2)CC12C(=O)Nc1ccccc12` (centres undefined) was tested. Which “% Inhibition” value did it give?
A: -4%

Q: And the Z score?
A: 0.44

Q: Which results are given for `c1ccc2nc(-c3nc(C4CC4)no3)cnc2c1`?
A: % Inhibition: -7%; Z score: 1.45

Q: What does the source list for `CCOc1cc(CNC(=O)N2CCC3(CCC(=O)NC3)CC2)ccc1OC`?
A: % Inhibition: 5%; Z score: -0.68

Q: How did the “% Inhibition” value turn out when `CCC(CC)C(=O)Nc1cccc(O)c1` was run?
A: 35%

Q: And the Z score?
A: -4.47

Q: With `CN1CCN([C@H]2CN(Cc3c[nH]nc3-c3ccc(F)cc3)C[C@@H]2O)CC1` as the molecule, how does the “% Inhibition” value read?
A: -6%

Q: What about the Z score of the same molecule?
A: 0.9
